# The full ranking holds about 110,000 compounds; the median of “z-score” is about -0.1, and the highest 2% start at about 2. The list shows a part of the results. Active and inactive are the calls of the source.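 How the source made its calls: active means z-score in the third read window above 3 or below -3; inactive means the rest.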
# Molecular target: Metabotropic glutamate receptor 8 (Rattus norvegicus) (UniProt P70579)
# Test: rat mGluR8 modulators via GIRK flux, primary screen, cell-based, thallium flux, HTS (AID 488969)
# Details: HEK293 rat mGluR8, GIRK (G protein-gated inwardly rectifying potassium channel) thallium flux, FluoZin2; at 10 µM; stronger effect = higher value; submaximal glutamate (EC20) added with thallium
# Chain of UniProt P70579 (P70579 whole entry, looked up): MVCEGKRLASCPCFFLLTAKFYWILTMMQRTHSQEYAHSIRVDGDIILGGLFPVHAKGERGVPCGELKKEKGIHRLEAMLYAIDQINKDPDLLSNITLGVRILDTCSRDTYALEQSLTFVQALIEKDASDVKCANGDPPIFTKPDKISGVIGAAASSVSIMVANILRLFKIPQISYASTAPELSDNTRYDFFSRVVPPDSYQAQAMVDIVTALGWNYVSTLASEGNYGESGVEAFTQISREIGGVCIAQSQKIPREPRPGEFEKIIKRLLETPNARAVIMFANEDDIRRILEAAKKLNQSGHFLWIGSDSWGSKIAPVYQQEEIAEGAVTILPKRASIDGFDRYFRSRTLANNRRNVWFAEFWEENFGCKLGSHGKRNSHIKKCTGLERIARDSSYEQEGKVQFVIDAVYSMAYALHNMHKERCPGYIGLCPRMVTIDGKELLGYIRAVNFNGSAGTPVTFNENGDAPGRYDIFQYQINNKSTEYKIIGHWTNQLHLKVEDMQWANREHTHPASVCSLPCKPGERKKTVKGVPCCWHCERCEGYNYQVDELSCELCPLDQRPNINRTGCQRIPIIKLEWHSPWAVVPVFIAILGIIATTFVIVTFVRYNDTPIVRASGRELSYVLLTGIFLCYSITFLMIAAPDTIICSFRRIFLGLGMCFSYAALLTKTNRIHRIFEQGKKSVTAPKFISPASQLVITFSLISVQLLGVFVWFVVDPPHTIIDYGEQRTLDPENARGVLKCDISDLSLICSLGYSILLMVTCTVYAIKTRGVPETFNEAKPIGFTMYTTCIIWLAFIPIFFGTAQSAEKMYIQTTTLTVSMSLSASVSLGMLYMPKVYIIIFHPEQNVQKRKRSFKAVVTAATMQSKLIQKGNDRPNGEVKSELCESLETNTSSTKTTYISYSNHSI
row,Compound,z-score
1,Cc1ccc(-c2cc(C(=O)NCc3cccs3)no2)cc1,-0.229
2,CCOc1ccc(S(=O)(=O)NCC2CCCO2)cc1 (centres undefined),-0.242
3,O=C(N/N=C/c1ccc[nH]1)c1sc2ccccc2c1Cl,1.36
4,Cc1cc(C(=O)NCc2ccccc2F)cs1,-0.288
5,CCn1c(SCCC(=O)Nc2ccccc2)nnc1-c1ccc(OC)cc1,0.0208
6,O=C(Nc1ccc2c(c1)OCCO2)C1CCN(c2cnccn2)CC1,2.51
7,CCOc1cccc(Oc2ccc(C(F)(F)F)cn2)c1,-0.348
8,CCOC(=O)CC1=C(C(=O)OCC)C(c2ccc(OC)c(OC)c2)C(C#N)=C(N)O1 (centres undefined),0.0332
9,CCOC(=O)c1c(NC(=O)CSc2nnnn2-c2ccc3c(c2)OCCO3)sc(C)c1C,-0.255
10,O=C(NC1CCCCC1)C1CCN(S(=O)(=O)c2cccc3cccnc23)CC1,-0.107
11,Cc1ccc(C)c(NC(=O)c2cc3ccccn3n2)c1,1.35
12,O=C(Cc1ccccc1)NC(NNc1ccccc1)(C(F)(F)F)C(F)(F)F,-0.447
13,COC(=O)CN(n1cnnc1)S(=O)(=O)c1ccc(C)cc1,0.214
14,Clc1ccc(-c2cc(CSc3ccccc3)on2)cc1,-0.0829
15,CCCC(=O)NC(C)C(c1cccs1)N1CCN(c2ccccc2)CC1 (centres undefined),0.275
16,Cc1cccc(NC(=O)c2ccc([N+](=O)[O-])cc2Cl)n1,-0.0529
17,COc1ccc(CN2CCNC(=O)C2CC(=O)O)c(OC)c1 (centres undefined),0.235
18,CSc1nc(-c2ccccc2)nc2[nH]ccc(=O)c12,-0.134
19,O=C(CSc1nnc(-c2ccccc2)n1Cc1ccco1)Nc1ccc2c(c1)OCCO2,0.217
20,O=C(c1cccs1)N(Cc1ccccn1)Cc1ccco1,-0.0776
21,Cc1ccc(NC(=O)/C(=C/c2cccc(Br)c2)NC(=O)c2ccco2)cc1,-0.0217
22,COC(=O)c1nn(-c2cccc(C(F)(F)F)c2)c(=O)cc1Sc1ccccn1,-0.255

row,Compound,z-score
1,O=C(N=Nc1c(O)n(Cc2ccccc2)c2ccccc12)c1ccc(O)cc1,-0.143
2,Cc1sc2nc(CN3CCCC3)nc(N3CCC(C(N)=O)CC3)c2c1C,-0.212
3,COc1ccc(C(=O)NCC(=O)N=Nc2c(O)n(Cc3ccccc3)c3ccccc23)cc1OC,-0.274
4,Cc1cnc(NC(=O)COc2ccccc2Cl)s1,active: 3.06
5,CC1C/C(=C\c2cccnc2)C(=O)/C(=C/c2cccnc2)C1 (centres undefined),-0.0889
6,CCOC(=O)c1c(C)[nH]c(C(=O)COC(=O)COc2ccc(OC)cc2)c1C,0.344
7,O=[n+]1cc(-c2cccc3ccccc23)n([O-])c2c1CCC2,-0.0689
8,Cc1cccc(NC(=O)c2ccccc2[N+](=O)[O-])n1,-0.229
9,CN(C)c1ccc(-c2nnn(Cc3ccccc3Br)n2)cc1,-0.142
10,O=C(NCCN1CCOCC1)c1ccc([N+](=O)[O-])cc1[N+](=O)[O-],0.0637
11,Cc1ccc(S(=O)(=O)/C(C#N)=C/c2c(N3CCOCC3)nc3ccccn3c2=O)cc1,-0.398
12,CC(=O)Nc1cccc(OCC(=O)Nc2ccc(F)cc2)c1,0.0737
13,Cn1nnnc1SCC(=O)Nc1ccccc1[N+](=O)[O-],-0.196
14,O=C(OCc1ccccc1)c1ccc(Br)o1,0.158
15,Cc1cc2cccc(C)c2nc1SCC(=O)N(C)c1nc(-c2ccccc2)cs1,0.00775
16,CCC(=O)Nc1cccc(-c2nc3ccccc3o2)c1,-1.43
17,O=C(Nc1ccc(Oc2nnc(-c3ccccc3)c3ccccc23)cc1)c1ccccc1,0.0138
18,Cn1c(=O)c(NC(=O)c2ccccc2)c2n(c1=S)CCCCC2,-0.181
19,CCOc1ccc(Nc2nc(Cc3nnc(SCC(=O)c4ccc(C)c(C)c4)o3)cs2)cc1,0.217
20,Cc1ccccc1NC(=O)N1C2CCCC1CC(NC(=O)C1CC1)C2 (centres undefined),0.864
21,CC(NCc1cccn1C)c1ccccc1 (centres undefined),-0.0825
22,CC1CCc2c(sc(NC(=O)c3ccc(-c4ccccc4[N+](=O)[O-])o3)c2C#N)C1 (centres undefined),0.0737

row,Compound,z-score
1,Cc1ccc(-n2c(-c3ccco3)nc3c(cnn3-c3ccc(C)cc3)c2=O)cc1,-0.0771
2,FC(F)(F)c1nnc2c(Sc3ccccn3)nc3ccccc3n12,0.437
3,CC(OC(=O)c1ccc2c(=O)n3c(nc2c1)CCCCC3)C(=O)Nc1ncc(Cl)cc1Cl (centres undefined),-1.16
4,C=CCN1C(=Nc2ccccc2)SC/C1=C\C(=O)OC,0.502
5,CC(C)Oc1cccc(C(=O)Nc2ccc(N3CCN(S(C)(=O)=O)CC3)cc2)c1,-1.5
6,Cc1cccc(NC(=O)N2CCCC2C(=O)NCc2cccs2)c1 (centres undefined),0.181
7,CCSc1nnc2n(-c3ccc(OC)cc3)c(=O)c3c4c(sc3n12)CCCC4,-0.94
8,COc1cc([N+](=O)[O-])ccc1NC(=O)CCCOc1cccc(C)c1,-0.442
9,Cc1ccc(S(=O)(=O)n2nc(OC(=O)c3c(-c4ccccc4Cl)noc3C)cc2N)cc1,-1.4
10,Oc1ccc2ccccc2c1C=Nc1cc(C(F)(F)F)ccc1N1CCCC1,-0.252
11,Cc1ccc(NC(=O)c2onc(C)c2Cl)cc1,-0.347
12,CCOC(=O)c1c(NC(=O)C(C)N2CCN(C(=O)c3ccco3)CC2)sc2c1CCCC2 (centres undefined),-0.531
13,CCN(CC)CCCOc1ccc(C)cc1Br,1.32
14,O=C(Cc1cccc2ccccc12)NC(NC(=S)Nc1ccccc1Cl)C(Cl)(Cl)Cl (centres undefined),-0.0457
15,O=C(CN1CCOCC1)Nc1ccc(C2CCCCC2)cc1,2.23
16,CC1(C)C2CCC1(CS(=O)(=O)N1CCCc3ccccc31)C(=O)C2 (centres undefined),-0.115
17,CCC(C)n1cnc2c(=O)oc3ccccc3c21 (centres undefined),-0.639
18,COc1ccc(NC2=NCC(=O)N2Cc2cccs2)cc1,-0.276
19,Cn1c(NC(=O)C[n+]2cc(-c3ccc(F)cc3)n3c2CCC3)cc(=O)n(C)c1=O,-0.969
20,C=CCn1c(SCC(=O)Nc2cc(C)on2)nc2sc(C)c(C)c2c1=O,-0.0679
21,O=C(CSc1nnc2c(Cl)cc(Cl)cn12)N1CCOCC1,-0.432
22,C=CCn1c(SC(C)C(=O)NCc2ccc3c(c2)OCO3)nc2scc(-c3ccccc3)c2c1=O (centres undefined),0.000751

row,Compound,z-score
1,CC(C)(C)C1CCc2c(sc(NC(=O)c3ccncc3)c2C(N)=O)C1 (centres undefined),-0.29
2,CC(=O)Nc1c2c3c(cccc3n(C)c1=O)C(=O)c1ccccc1-2,-0.498
3,COc1ccc(S(=O)(=O)N2CCC(C(=O)NC3CC3)CC2)cc1Cl,-0.23
4,CCc1ccc2nc3c(c(C(=O)O)c2c1)CCC3,-0.0608
5,O=C(CSc1nnc(-c2ccccn2)n1-c1ccc(Cl)cc1)Nc1ccc2c(c1)OCO2,-0.134
6,CN(C(=O)Nc1ccc(Cl)cc1)c1c2c(nn1C)CCCC2,-0.08
7,O=C(O)CSc1nc2c(c(=O)[nH]1)CCCC2,-0.317
8,Cc1c(Cl)cnc(NC(=O)CSc2nncs2)c1Cl,-0.0786
9,Cc1cc(C)nc(N(C#N)CC(=O)N(c2ccccc2)C(C)C)n1,0.0248
10,COc1ccc(Cl)cc1NC(=O)C12CCC(C)(C(=O)O1)C2(C)C (centres undefined),0.0212
11,Cc1ccc2nc(N3CCN(S(=O)(=O)c4ccc5c(c4)OCCO5)CC3)c(C#N)cc2c1,0.11
12,CCc1c(C)sc(NC(=O)c2cc(-c3ccc(O)cc3)on2)c1C#N,-0.0198
13,COc1cccc(C2CC(c3ccc(C)cc3)n3ncnc3N2)c1 (centres undefined),-0.207
14,COc1ccc(CCNc2ncnc3c2oc2ccccc23)cc1OC,-0.847
15,COC(=O)/C(=C\Nc1ccc(OC)cc1)NC(=O)c1ccc(Cl)cc1Cl,-0.0425
16,C=CCn1c(=S)[nH]c2sc3c(c2c1=O)CCC3,active: 10.9
17,COc1ccc(C(=O)Cc2ccc(OC)c(OC)c2)cc1,0.236
18,Cc1c(C(=O)NC(C(C)C)C(C)C)cccc1[N+](=O)[O-],-0.0419
19,Cc1cc(C(=O)CN2C(=O)NC(c3ccccc3)(c3ccccc3)C2=O)c(C)n1Cc1ccccc1,0.0764
20,Nc1nnc(SCCN2C(=O)c3ccccc3S2(=O)=O)s1,0.889
21,O=C(N/N=C/C1C(c2ccccc2)C1(Cl)Cl)c1cccc(Br)c1 (centres undefined),0.695
22,CCN(CC)S(=O)(=O)c1cccc(NC(=O)COC(=O)c2ccc(Br)o2)c1,-0.112

row,Compound,z-score
1,COc1ccccc1C(=O)Nc1ccc(CN2CCCCC2)cc1,0.53
2,CC1(C(=O)NC2CCCCCCC2)CC1(Cl)Cl (centres undefined),-0.175
3,COc1ccc(C(=O)Nc2ccc([N+](=O)[O-])cn2)c(OC)c1,1.48
4,CCNc1nc(NCC)nc(C(=O)OCCO)n1,-0.0769
5,O=C1CC(c2ccccc2)C(C(=O)O)N1 (centres undefined),-0.0442
6,COc1ccc(N(CC(=O)NCc2ccc3c(c2)OCO3)S(=O)(=O)c2c(C)nn(C)c2C)cc1,-0.575
7,COCCN(C(=O)Cc1cccs1)C(C(=O)NCc1ccc(OC)cc1)c1ccc(C(C)C)cc1 (centres undefined),-0.312
8,C[N+]1=C(/C=C/Nc2ccccc2Cl)C(C)(C)c2ccccc21,0.3
9,CCOc1ccc(CCNC(=O)CN2CCN(Cc3ccc(F)cc3)C2=O)cc1OCC,0.704
10,O=C(O)CCc1ccc(-c2ccc(Br)cc2)n1Cc1ccco1,-0.363
11,CCc1ccc(Nc2ncc3c(n2)CC(c2ccc(OC)cc2)CC3=O)cc1 (centres undefined),-0.0834
12,CC1(C)CC(O)C(C(O)c2cccc([N+](=O)[O-])c2)C(C)(C)N1 (centres undefined),-0.115
13,COc1ccc(CC(NC(C)=O)C(=O)NC2CCN(C(=O)Nc3ccccc3Cl)CC2)cc1OC (centres undefined),0.0243
14,O=C(NCC1CCNCC1)c1ccncc1,0.0804
15,C/C(=N\NC(=O)C1(C)CC1(Br)Br)c1ccc(NC(=O)c2ccc(C)o2)cc1 (centres undefined),0.0535
16,Cc1ccc(S(=O)(=O)N2CCCCC2)cc1NC(=O)C1CC(=O)N(Cc2ccccc2)C1 (centres undefined),-0.177
17,Cn1c(=O)c2c(nc(-n3ccnc3)n2Cc2ccccc2)n(C)c1=O,active: -3.15
18,O=C(CN(C(=O)c1ccccc1Cl)C1CCCCC1)Nc1ccc(Cl)c([N+](=O)[O-])c1,-0.105
19,CCOc1ccccc1OCC(=O)Nc1ccc(Cl)cc1Cl,-0.155
20,O=C(COC(=O)[C@H](Cc1c[nH]c2ccccc12)NC(=O)c1cccs1)NCc1ccccc1,-0.557
21,COc1ccccc1-c1cc(C(=O)N/N=C/C=C/c2ccccc2[N+](=O)[O-])c2ccccc2n1,-0.217

# Reference: PubChem BioAssay AID488969 (Vanderbilt High Throughput Screening Facility, 2010)
